According to the supplement of paper PMC4967469:
Lines with a small IC50 respond at low doses; where the fit passes the top or lowest dose, that dose stands as a limit. AUC sums up the same curve from the lowest dose to the 256-fold higher top dose; it is 1 without any effect and falls as sensitivity rises. For some assays here: A top dose marked as inferred is not printed in the source and was worked back from the curve model. For some assays here: Where an entry number is given, a second screen of the drug exists; the two often differ.

What was measured:
Assay in all cases: Viability of human cancer cell lines after 72 h of drug (GDSC screen)
BX-795 = compound: O=C(NCCCNc1nc(Nc2cccc(NC(=O)N3CCCC3)c2)ncc1I)c1cccs1 [BX-795]; settings: top dose 5 µM; top dose inferred
Procedure: (§1)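 Human cancer cell lines in 384-well plates, medium with 10% serum, drug for 72 h over a 256-fold dose range (nine 2-fold or five 4-fold steps up to the top dose). Adherent lines were fixed and stained with the nucleic acid dye Syto60, suspension lines read with resazurin; signal relative to control wells, capped at 0 and 100%. One two-parameter sigmoid per drug and line, fitted in a mixed model over all curves with the slope shared within a line.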

UNC0638 = compound: COc1cc2c(NC3CCN(C(C)C)CC3)nc(C3CCCCC3)nc2cc1OCCCN1CCCC1 [UNC0638]
Procedure: as §1

Tretinoin = compound: CC1=C(/C=C/C(C)=C/C=C/C(C)=C/C(=O)O)C(C)(C)CCC1 [Tretinoin]; settings: top dose 10 µM; top dose inferred
Procedure: as §1

SB-505124 = compound: Cc1cccc(-c2[nH]c(C(C)(C)C)nc2-c2ccc3c(c2)OCO3)n1 [SB-505124]; settings: top dose 10 µM; top dose inferred
Procedure: as §1

PI-103 = compound: Oc1cccc(-c2nc(N3CCOCC3)c3oc4ncccc4c3n2)c1 [PI-103]; settings: top dose 10.24 µM
Procedure: as §1

WH-4-023 = compound: COc1ccc(N(C(=O)Oc2c(C)cccc2C)c2ccnc(Nc3ccc(N4CCN(C)CC4)cc3)n2)c(OC)c1 [WH-4-023]; settings: top dose 5.12 µM; top dose inferred
Procedure: as §1

GSK690693 = compound: CCn1c(-c2nonc2N)nc2c(C#CC(C)(C)O)ncc(OC[C@H]3CCCNC3)c21 [GSK690693]; settings: top dose 10.24 µM; top dose inferred
Procedure: as §1

[1] = top dose 20 µM, screen: GDSC drug entry 1236, top dose inferred
[2] = top dose 40 µM, screen: GDSC drug entry 245

Cell Line | AUC (BX-795) | IC50 (BX-795) [µM] | AUC (UNC0638; [1]) | IC50 (UNC0638; [1]) [µM] | AUC (UNC0638; [2]) | IC50 (UNC0638; [2]) [µM] | AUC (Tretinoin) | IC50 (Tretinoin) [µM] | AUC (SB-505124) | IC50 (SB-505124) [µM] | AUC (PI-103) | IC50 (PI-103) [µM] | AUC (WH-4-023) | IC50 (WH-4-023) [µM] | AUC (GSK690693) | IC50 (GSK690693) [µM]
D-263MG (glioma, adherent) | 0.773 | 2.36 | 0.936 | > 20 | 0.968 | > 40 | 0.956 | > 10 | 0.98 | > 10 | 0.983 | > 10.2 | 0.712 | 1.46 | 0.983 | > 10.2
D-283MED (medulloblastoma, adherent) | 0.699 | 1.07 | 0.99 | > 20 | 0.991 | > 40 | 0.391 | 0.322 | 0.981 | > 10 | 0.991 | > 10.2 | 0.982 | > 5.12 | 0.991 | > 10.2
D-336MG (glioma, adherent) | 0.829 | 4.4 | 0.822 | 16.3 | 0.75 | 16.4 | 0.937 | > 10 | 0.972 | > 10 | 0.423 | 0.372 | 0.315 | 0.0831 | 0.815 | 7.76
D-502MG (glioma, adherent) | 0.841 | > 5 | 0.973 | > 20 | 0.824 | > 40 | 0.952 | > 10 | 0.945 | > 10 | 0.533 | 0.828 | 0.936 | > 5.12 | 0.945 | > 10.2
DB (B-cell lymphoma, suspension) | 0.767 | 2.09 | 0.731 | 6.26 | 0.436 | 1.64 | 0.958 | > 10 | 0.942 | > 10 | 0.765 | 4.19 | 0.983 | > 5.12 | 0.971 | > 10.2
DEL (lymphoid neoplasm, suspension) | 0.994 | > 5 | 0.815 | 8.18 | 0.516 | 2.74 | 0.994 | > 10 | 0.959 | > 10 | 0.517 | 0.706 | 0.962 | > 5.12 | 0.954 | > 10.2
DG-75 (Burkitt lymphoma, suspension) | 0.883 | > 5 | 0.744 | 6.32 | 0.795 | 18.8 | 0.96 | > 10 | 0.945 | > 10 | 0.845 | 7.56 | 0.942 | > 5.12 | 0.987 | > 10.2
DMS-79 (small cell lung carcinoma, suspension) | 0.979 | > 5 | 0.923 | > 20 | 0.781 | 19.6 | 0.975 | > 10 | 0.974 | > 10 | 0.738 | 3.48 | 0.941 | > 5.12 | 0.95 | > 10.2
DMS-114 (small cell lung carcinoma, adherent) | 0.899 | > 5 | 0.798 | 11.1 | 0.756 | 15.6 | 0.977 | > 10 | 0.956 | > 10 | 0.386 | 0.295 | 0.83 | 3.91 | 0.881 | > 10.2
DND-41 (T-cell leukaemia, suspension) | 0.783 | 1.85 | 0.699 | 4.19 | 0.426 | 1.61 | 0.986 | > 10 | 0.98 | > 10 | 0.467 | 0.526 | 0.943 | > 5.12 | 0.876 | 8.16
DSH1 (bladder, adherent) | 0.908 | > 5 | 0.988 | > 20 | 0.888 | > 40 | 0.977 | > 10 | 0.982 | > 10 | 0.726 | 2.71 | 0.986 | > 5.12 | 0.945 | > 10.2
DU-4475 (breast, suspension) | 0.804 | 1.98 | 0.834 | 9.81 | 0.735 | 10 | 0.978 | > 10 | 0.981 | > 10 | 0.726 | 2.42 | 0.977 | > 5.12 | 0.981 | > 10.2
Daudi (Burkitt lymphoma, suspension) | 0.952 | > 5 | 0.784 | 7.37 | 0.719 | 9.45 | 0.966 | > 10 | 0.977 | > 10 | 0.199 | 0.0964 | 0.595 | 0.562 | 0.901 | > 10.2
EB2 (Burkitt lymphoma, suspension) | 0.989 | > 5 | 0.756 | 6.27 | 0.573 | 3.88 | 0.988 | > 10 | 0.982 | > 10 | 0.106 | < 0.04 | 0.95 | > 5.12 | 0.173 | 0.0745
EB-3 (Burkitt lymphoma, suspension) | 0.984 | > 5 | 0.747 | 7.29 | 0.712 | 11.1 | 0.983 | > 10 | 0.913 | > 10 | 0.212 | 0.0775 | 0.682 | 1.13 | 0.945 | > 10.2
EC-GI-10 (oesophagus, adherent) | 0.86 | 4.12 | 0.923 | > 20 | 0.979 | > 40 | 0.955 | > 10 | 0.987 | > 10 | 0.989 | > 10.2 | 0.987 | > 5.12 | 0.989 | > 10.2
EJM (lymphoid neoplasm, semi-adherent) | 0.927 | > 5 | 0.834 | 10.2 | 0.679 | 7.2 | 0.964 | > 10 | 0.987 | > 10 | 0.312 | 0.211 | 0.992 | > 5.12 | 0.951 | > 10.2
